# According to the supplement of paper PMC8728848:
# This is one part of the list.
# B1: CCL1 (Coprinopsis cinerea) (protein)
# chain: MDTQAKPPAGRYVIYNRVLSPNGEKLALTYPGYQREALTLTPLHHSANQIWILNNWDATTSSLTPETARNTQVGWGSGNVPIVLPPGNYVWTLASSAGGYIIQDGGKTVYWNAGEAVANTKVSIGGDNGLQARWIFERV
# Experiments:
# Assay in all cases: glycan array binding signal (z-score within array); higher = stronger binding
# Settings in all cases: glycan notation: IUPAC condensed, linker removed
# [1] = target: Man(a1-2)Man(a1-3)[Man(a1-2)Man(a1-6)]Man(a1-6)[Man(a1-2)Man(a1-2)Man(a1-3)]Man(b1-4)GlcNAc(b1-4)GlcNAc
# Outline: (§1)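 Arrays were curated from the Consortium for Functional Glycomics database, 3228 in total, and kept only where the protein sequence was available. Binding is expressed as a within-array Z-score. This score was averaged across arrays of the same protein sequence at different concentrations or buffers and across linkers, and negative values can be read as non-binding.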
# [2] = target: Man(a1-2)Man(a1-3)[Man(a1-6)]Man(a1-6)[Man(a1-2)Man(a1-3)]Man(b1-4)GlcNAc(b1-4)GlcNAc
# Outline: as §1
# [3] = target: Man(a1-2)Man(a1-6)[Man(a1-3)]Man(a1-6)[Man(a1-2)Man(a1-2)Man(a1-3)]Man
# Outline: as §1
# [4] = target: Man(a1-2)Man(a1-6)[Man(a1-3)]Man(a1-6)[Man(a1-2)Man(a1-2)Man(a1-3)]Man(b1-4)GlcNAc(b1-4)GlcNAc
# Outline: as §1
# [5] = target: Man(a1-3)[Man(a1-6)]Man
# Outline: as §1
# [6] = target: Man(a1-3)[Man(a1-6)]Man(a1-6)[Man(a1-2)Man(a1-3)]Man(b1-4)GlcNAc(b1-4)GlcNAc
# Outline: as §1
# [7] = target: Man(a1-3)[Man(a1-6)]Man(a1-6)[Man(a1-3)]Man
# Outline: as §1
# [8] = target: Man(a1-3)[Man(a1-6)]Man(a1-6)[Man(a1-3)]Man(b1-4)GlcNAc(b1-4)GlcNAc
# Outline: as §1
# [9] = target: Man(a1-3)[Man(a1-6)]Man(b1-4)GlcNAc(b1-4)GlcNAc
# Outline: as §1
# [10] = target: Man(a1-3)[Man(a1-6)]Man(b1-4)GlcNAc(b1-4)[Fuc(a1-6)]GlcNAc
# Outline: as §1
# [11] = target: Man(a1-6)Man
# Outline: as §1
# [12] = target: Man(b1-4)GlcNAc
# Outline: as §1
# [13] = target: Neu5Ac(a2-3)Gal
# Outline: as §1
# [14] = target: Neu5Ac(a2-3)Gal(b1-3)GalNAc
# Outline: as §1
# [15] = target: Neu5Ac(a2-3)Gal(b1-3)GalNAc(b1-3)Gal(a1-4)Gal(b1-4)Glc
# Outline: as §1
# [16] = target: Neu5Ac(a2-3)Gal(b1-3)GalNAc(b1-4)[Neu5Ac(a2-3)]Gal(b1-4)Glc
# Outline: as §1
# [17] = target: Neu5Ac(a2-3)Gal(b1-3)GalNAc(b1-4)[Neu5Ac(a2-8)Neu5Ac(a2-3)]Gal(b1-4)Glc
# Outline: as §1
# [18] = target: Neu5Ac(a2-3)Gal(b1-3)GalNAc6S
# Outline: as §1
# [19] = target: Neu5Ac(a2-3)Gal(b1-3)GlcNAc
# Outline: as §1
# [20] = target: Neu5Ac(a2-3)Gal(b1-3)GlcNAc(b1-2)Man(a1-3)[GlcNAc(b1-4)][Neu5Ac(a2-3)Gal(b1-3)GlcNAc(b1-2)Man(a1-6)]Man(b1-4)GlcNAc(b1-4)GlcNAc
# Outline: as §1
# [21] = target: Neu5Ac(a2-3)Gal(b1-3)GlcNAc(b1-3)Gal(b1-3)GlcNAc
# Outline: as §1
# [22] = target: Neu5Ac(a2-3)Gal(b1-3)GlcNAc(b1-3)Gal(b1-4)GlcNAc
# Outline: as §1
binder,measurement,setting,value
B1,glycan array binding signal (z-score),[1],-0.139
same,glycan array binding signal (z-score),[2],-0.122
same,glycan array binding signal (z-score),[3],-0.122
same,glycan array binding signal (z-score),[4],-0.138
same,glycan array binding signal (z-score),[5],-0.154
same,glycan array binding signal (z-score),[6],-0.134
same,glycan array binding signal (z-score),[7],-0.158
same,glycan array binding signal (z-score),[8],-0.165
same,glycan array binding signal (z-score),[9],-0.125
same,glycan array binding signal (z-score),[10],-0.142
same,glycan array binding signal (z-score),[11],-0.133
same,glycan array binding signal (z-score),[12],-0.165
same,glycan array binding signal (z-score),[13],-0.152
same,glycan array binding signal (z-score),[14],-0.095
same,glycan array binding signal (z-score),[15],-0.159
same,glycan array binding signal (z-score),[16],-0.132
same,glycan array binding signal (z-score),[17],-0.023
same,glycan array binding signal (z-score),[18],-0.152
same,glycan array binding signal (z-score),[19],-0.117
same,glycan array binding signal (z-score),[20],-0.156
same,glycan array binding signal (z-score),[21],-0.11
same,glycan array binding signal (z-score),[22],-0.122
